{
  "source": "the supplement of paper PMC5499739",
  "note": "Whole data set: some 16,000 sequences, median “Z-score” near -0.37, cut for the highest 2% near 3.2. Some of the results follow.",
  "data": [
    {"system": "RBM10 RRM1-ZnF (GST-tagged construct)", "experiment": "RNAcompete 7-mer binding Z-score; higher = stronger binding preference", "description": "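RNAcompete: 20 pmol GST-tagged RBM10 RNA-binding constructs were incubated with a designed RNA pool of about 241,000 sequences up to 41 nt (1.5 nmol) on glutathione beads for 30 min at 4 °C and washed. Bound RNAs were identified by microarray hybridisation. Each RNA 7-mer is scored by a one-sided Z-score of its enrichment, computed over probes that contain the 7-mer within longer pool sequences.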", "values": [
      {"sequence": "CGCACUA", "RNAcompete 7-mer binding Z-score": -0.597},
      {"sequence": "UGCAGCG", "RNAcompete 7-mer binding Z-score": 0.3},
      {"sequence": "CCGAUAC", "RNAcompete 7-mer binding Z-score": -0.668},
      {"sequence": "CGCAAAA", "RNAcompete 7-mer binding Z-score": -0.535},
      {"sequence": "CAUAAUC", "RNAcompete 7-mer binding Z-score": -0.88},
      {"sequence": "CCAGGCC", "RNAcompete 7-mer binding Z-score": -0.756},
      {"sequence": "GGGGUUA", "RNAcompete 7-mer binding Z-score": 3.21},
      {"sequence": "CGUGUCC", "RNAcompete 7-mer binding Z-score": -0.691},
      {"sequence": "CUGUGGA", "RNAcompete 7-mer binding Z-score": 0.92},
      {"sequence": "UAGGGUC", "RNAcompete 7-mer binding Z-score": 1.55},
      {"sequence": "UCGGGAA", "RNAcompete 7-mer binding Z-score": 1.33},
      {"sequence": "CCGCAAC", "RNAcompete 7-mer binding Z-score": -0.633},
      {"sequence": "UCGCUAA", "RNAcompete 7-mer binding Z-score": -0.591},
      {"sequence": "UCCCGGA", "RNAcompete 7-mer binding Z-score": -0.399},
      {"sequence": "CAUGGGG", "RNAcompete 7-mer binding Z-score": 2.42},
      {"sequence": "GAAUUCU", "RNAcompete 7-mer binding Z-score": -0.691},
      {"sequence": "GAAAUCC", "RNAcompete 7-mer binding Z-score": -0.717},
      {"sequence": "GGGUACG", "RNAcompete 7-mer binding Z-score": 2.79},
      {"sequence": "ACCAGAG", "RNAcompete 7-mer binding Z-score": -0.129},
      {"sequence": "GGACCCU", "RNAcompete 7-mer binding Z-score": -0.288},
      {"sequence": "CCCGAUC", "RNAcompete 7-mer binding Z-score": -0.701},
      {"sequence": "AGGAUCC", "RNAcompete 7-mer binding Z-score": -0.34},
      {"sequence": "UAGCAGA", "RNAcompete 7-mer binding Z-score": 0.469},
      {"sequence": "ACGGGAA", "RNAcompete 7-mer binding Z-score": 3.12},
      {"sequence": "AACAGGA", "RNAcompete 7-mer binding Z-score": 1.52},
      {"sequence": "CGCCUAA", "RNAcompete 7-mer binding Z-score": -0.694},
      {"sequence": "GCGGCGU", "RNAcompete 7-mer binding Z-score": 0.881},
      {"sequence": "ACCCGUU", "RNAcompete 7-mer binding Z-score": -0.87},
      {"sequence": "CUCCCUA", "RNAcompete 7-mer binding Z-score": -0.665},
      {"sequence": "GCCAGUU", "RNAcompete 7-mer binding Z-score": -0.753},
      {"sequence": "UCUAGCG", "RNAcompete 7-mer binding Z-score": -0.548},
      {"sequence": "CCCGCAG", "RNAcompete 7-mer binding Z-score": -0.214},
      {"sequence": "UGCACUU", "RNAcompete 7-mer binding Z-score": -0.639},
      {"sequence": "GGGUGAG", "RNAcompete 7-mer binding Z-score": 4.36},
      {"sequence": "CAUGAUA", "RNAcompete 7-mer binding Z-score": -0.165},
      {"sequence": "UUUAAUC", "RNAcompete 7-mer binding Z-score": -0.802},
      {"sequence": "CGACCUA", "RNAcompete 7-mer binding Z-score": -0.733},
      {"sequence": "CCGCUAG", "RNAcompete 7-mer binding Z-score": -0.418},
      {"sequence": "ACCGGUG", "RNAcompete 7-mer binding Z-score": 0.439},
      {"sequence": "AAGGGUU", "RNAcompete 7-mer binding Z-score": 4.07},
      {"sequence": "CUCCGGU", "RNAcompete 7-mer binding Z-score": -0.467},
      {"sequence": "CGUUUAA", "RNAcompete 7-mer binding Z-score": -0.714},
      {"sequence": "GUGCUGC", "RNAcompete 7-mer binding Z-score": 0.0463},
      {"sequence": "AUCUCUA", "RNAcompete 7-mer binding Z-score": -0.795},
      {"sequence": "UCUGAAA", "RNAcompete 7-mer binding Z-score": -0.513},
      {"sequence": "GUAAUGU", "RNAcompete 7-mer binding Z-score": 0.621},
      {"sequence": "UUAGGAU", "RNAcompete 7-mer binding Z-score": 1.1},
      {"sequence": "ACAAAGA", "RNAcompete 7-mer binding Z-score": -0.184},
      {"sequence": "CACCCCU", "RNAcompete 7-mer binding Z-score": -0.431},
      {"sequence": "CAGAGAG", "RNAcompete 7-mer binding Z-score": 0.709},
      {"sequence": "AUACAAU", "RNAcompete 7-mer binding Z-score": -0.539},
      {"sequence": "CGCUCGG", "RNAcompete 7-mer binding Z-score": -0.178},
      {"sequence": "UGUGGCG", "RNAcompete 7-mer binding Z-score": 1.12},
      {"sequence": "CUCAGAU", "RNAcompete 7-mer binding Z-score": -0.565},
      {"sequence": "UCCCUUC", "RNAcompete 7-mer binding Z-score": -0.571},
      {"sequence": "CUAGGGA", "RNAcompete 7-mer binding Z-score": 1.69},
      {"sequence": "UAAACUC", "RNAcompete 7-mer binding Z-score": -0.72},
      {"sequence": "AGGAUAA", "RNAcompete 7-mer binding Z-score": 1.16},
      {"sequence": "UCAGCCU", "RNAcompete 7-mer binding Z-score": -0.815},
      {"sequence": "GGUCGCG", "RNAcompete 7-mer binding Z-score": 0.803},
      {"sequence": "GUUAUCU", "RNAcompete 7-mer binding Z-score": -0.47},
      {"sequence": "UGCUGUU", "RNAcompete 7-mer binding Z-score": -0.571},
      {"sequence": "AGUCCUU", "RNAcompete 7-mer binding Z-score": -0.792},
      {"sequence": "CGAGUUU", "RNAcompete 7-mer binding Z-score": -0.513},
      {"sequence": "CAAAACC", "RNAcompete 7-mer binding Z-score": -0.704},
      {"sequence": "AUUGCAA", "RNAcompete 7-mer binding Z-score": -0.405},
      {"sequence": "UUAGAGA", "RNAcompete 7-mer binding Z-score": 0.147},
      {"sequence": "CAGGCUU", "RNAcompete 7-mer binding Z-score": -0.256},
      {"sequence": "AGGUACU", "RNAcompete 7-mer binding Z-score": 0.102},
      {"sequence": "GCGCGUC", "RNAcompete 7-mer binding Z-score": -0.197},
      {"sequence": "GAUCUGG", "RNAcompete 7-mer binding Z-score": 0.261},
      {"sequence": "GCAAGAC", "RNAcompete 7-mer binding Z-score": -0.155},
      {"sequence": "UUGCAAA", "RNAcompete 7-mer binding Z-score": -0.321},
      {"sequence": "AAGCUCA", "RNAcompete 7-mer binding Z-score": -0.691},
      {"sequence": "UGCCGCC", "RNAcompete 7-mer binding Z-score": -0.415},
      {"sequence": "UGCUCUG", "RNAcompete 7-mer binding Z-score": -0.678},
      {"sequence": "UCCGCUC", "RNAcompete 7-mer binding Z-score": -0.694},
      {"sequence": "AGGAAGA", "RNAcompete 7-mer binding Z-score": 1.7},
      {"sequence": "AUUUGUC", "RNAcompete 7-mer binding Z-score": -0.737},
      {"sequence": "CUAAUCA", "RNAcompete 7-mer binding Z-score": -0.539},
      {"sequence": "UUGCCGA", "RNAcompete 7-mer binding Z-score": -0.561},
      {"sequence": "CGGGGGA", "RNAcompete 7-mer binding Z-score": 3.17},
      {"sequence": "AUCGCAU", "RNAcompete 7-mer binding Z-score": -0.396},
      {"sequence": "UAAAAGG", "RNAcompete 7-mer binding Z-score": 1.52},
      {"sequence": "CUGUAUC", "RNAcompete 7-mer binding Z-score": -0.649},
      {"sequence": "UAUUGCU", "RNAcompete 7-mer binding Z-score": -0.772},
      {"sequence": "CCUGAUC", "RNAcompete 7-mer binding Z-score": -0.792},
      {"sequence": "UCAGGCA", "RNAcompete 7-mer binding Z-score": 0.355},
      {"sequence": "GCCCAUG", "RNAcompete 7-mer binding Z-score": -0.552},
      {"sequence": "CUUCUGC", "RNAcompete 7-mer binding Z-score": -0.87},
      {"sequence": "UCACAAG", "RNAcompete 7-mer binding Z-score": -0.428}
    ]}
  ]
}
